# Test results: the supplement of paper PMC4604168 (melanoma cell lines)
# The other results are listed elsewhere or left out. Repeats are few or missing, and single values can be far off.
# Test system: SkMel5
# Experiment: cell count relative to DMSO control; melanoma cells; higher = more viable cells
# Conditions: library dose: standard library concentration; 72 h
# 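Note: cells treated in 1,536-well plates, then fixed and DAPI-stained, with nuclei counted from automated high-throughput microscope images.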
row,Structure (SMILES),cell count [%]
1,"CS(=O)(=O)CCNCc1ccc(-c2ccc3ncnc(Nc4ccc(OCc5cccc(F)c5)c(Cl)c4)c3c2)o1 [lapatinib] + Oc1nc(-c2ccc(C(F)(F)F)cc2)nc2c1CSCC2 [XAV939] (first compound 4 µM, partner dose 10 µM)",54.1
2,"C=CCNC1=C2C[C@@H](C)C[C@H](OC)[C@H](O)[C@@H](C)/C=C(\C)[C@H](OC(N)=O)[C@@H](OC)/C=C\C=C(/C)C(=O)NC(=CC1=O)C2=O [Tanespimycin] + O=C(O)C(=O)Nc1sc2c(c1C(=O)O)CCNC2 [TCS401] (first compound 0.01 µM, partner dose 8.33333 µM)",85.5
3,"C=CCNC1=C2C[C@@H](C)C[C@H](OC)[C@H](O)[C@@H](C)/C=C(\C)[C@H](OC(N)=O)[C@@H](OC)/C=C\C=C(/C)C(=O)NC(=CC1=O)C2=O [Tanespimycin] + Oc1nc(-c2ccc(C(F)(F)F)cc2)nc2c1CSCC2 [XAV939] (first compound 0.01 µM, partner dose 10 µM)",36.3
4,"CNC(=O)c1cc(Oc2ccc(NC(=O)Nc3ccc(Cl)c(C(F)(F)F)c3)cc2)ccn1 [sorafenib] + CCc1ccc(CCOc2ccc(CC3SC(=O)NC3=O)cc2)nc1 [pioglitazone] (first compound 2 µM, partner dose 10 µM)",75.8
5,"C[C@@H](Oc1cc(-c2cnn(C3CCNCC3)c2)cnc1N)c1c(Cl)ccc(F)c1Cl [Crizotinib] + O=S(=O)(c1ccccc1)N(CC(F)(F)F)c1ccc(C(O)(C(F)(F)F)C(F)(F)F)cc1 [T0901317] (first compound 1 µM, partner dose 7 µM)",60.6
6,"CN1CCN(c2ccc3nc(-c4c(N)c5c(F)cccc5[nH]c4=O)[nH]c3c2)CC1 [Dovitinib] + O=C(O)C(=O)Nc1sc2c(c1C(=O)O)CCNC2 [TCS401] (first compound 0.5 µM, partner dose 8.33333 µM)",65.1
7,"CS(=O)(=O)CCNCc1ccc(-c2ccc3ncnc(Nc4ccc(OCc5cccc(F)c5)c(Cl)c4)c3c2)o1 [lapatinib] + N#Cc1c(O)c2c(-c3ccc(-c4ccccc4O)cc3)csc2[nH]c1=O [A769662] (first compound 4 µM, partner dose 10 µM)",64.4
8,"CS(=O)(=O)CCNCc1ccc(-c2ccc3ncnc(Nc4ccc(OCc5cccc(F)c5)c(Cl)c4)c3c2)o1 [lapatinib] + O=C(O)C(=O)Nc1sc2c(c1C(=O)O)CCNC2 [TCS401] (first compound 4 µM, partner dose 8.33333 µM)",67.8
9,"CN1CCN(c2ccc3nc(-c4c(N)c5c(F)cccc5[nH]c4=O)[nH]c3c2)CC1 [Dovitinib] + N#Cc1c(O)c2c(-c3ccc(-c4ccccc4O)cc3)csc2[nH]c1=O [A769662] (first compound 0.5 µM, partner dose 10 µM)",70
10,"C[C@@H](Oc1cc(-c2cnn(C3CCNCC3)c2)cnc1N)c1c(Cl)ccc(F)c1Cl [Crizotinib] + O=C(Nc1ccccc1)c1cc([N+](=O)[O-])ccc1Cl [GW9662] (first compound 1 µM, partner dose 10 µM)",83.9
